Data taken from patent US20250084177A1, “ANTI-CD98 ANTIBODIES AND USES THEREOF” (HUAHUI HEALTH LTD., priority 2021, published 2025).

What was measured:
Raji tumors = assay: Raji xenograft tumor model; type: in vivo, mouse; conditions: NOD SCID mice, 10 mg/kg
Description: (§1) For mouse tumor models, 6-8-week old mice were inoculated subcutaneously with various tumor cells (in 100 μL DPBS or medium). Except for MDA-MB-231-LN cells inoculated on the breast fat pad of female mice, all other cells were inoculated on the right flank. For xenograft tumor models, based on similar mean tumor volumes, mice were randomized into groups (n=2-6/group) and received intraperitoneal injection of various antibodies. For syngeneic tumor models, mice were randomized into groups (n=3-10/group) after tumor cells inoculation (1×10^5 cells in DPBS) and received intraperitoneal injection of various antibodies. Tumor volume was measured with an electronic caliper and calculated using the modified ellipsoid formula ½×(length×width2). When the tumor reached 2 cm in length or when weakness was observed, the mice were sacrificed.

[1] = molecular target: T1, hCD98 ECD-His6-Avi-Biotin (Homo sapiens, UniProt P08195); assay: ELISA binding to hCD98 ECD at pH 6.5 and pH 7.4
T1 construct: ECD of human or murine CD98 were fused with His6-Avi tag and biotinylated by BirA ligase; made in house; host or cells: FreeStyle 293F cells
T1 sequence (P08195 105-529 limits assumed): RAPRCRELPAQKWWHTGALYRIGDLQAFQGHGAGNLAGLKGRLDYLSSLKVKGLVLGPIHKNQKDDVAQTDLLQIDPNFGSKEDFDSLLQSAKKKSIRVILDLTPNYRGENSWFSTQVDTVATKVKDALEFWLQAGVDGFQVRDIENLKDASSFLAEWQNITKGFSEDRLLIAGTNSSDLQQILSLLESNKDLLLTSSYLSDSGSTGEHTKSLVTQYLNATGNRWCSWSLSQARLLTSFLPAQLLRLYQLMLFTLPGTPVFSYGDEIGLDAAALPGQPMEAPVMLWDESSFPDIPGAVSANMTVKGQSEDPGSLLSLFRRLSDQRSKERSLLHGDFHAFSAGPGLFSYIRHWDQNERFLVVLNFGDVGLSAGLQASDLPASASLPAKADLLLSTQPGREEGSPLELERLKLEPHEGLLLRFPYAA
Description: For the ELISA-based analysis of antibody binding with antigen, biotinylated protein antigens were captured with streptavidin (Sigma-Aldrich) coated 96-well plates (Nunc, MaxiSorp™). Then, serially diluted antibodies were added, and detected by adding an HRP-labeled goat polyclonal anti-Human IgG Fc (Thermo Fisher Scientific).

A-431 cells = assay: FACS binding to A-431 cells at pH 6.5 and pH 7.4; parameters: species or system human
From the text: For examining CD98 expression in tumor cell lines: tumor cells were stained with anti-CD98 antibodies and subsequently stained with a goat polyclonal anti-Human IgG Fc FITC (Thermo Fisher Scientific). The CD98 expression on tumor cell lines were detected by FITC.

A-431 tumors = assay: A-431 xenograft tumor model; type: in vivo, mouse; conditions: CB-17 SCID mice, 15 mg/kg
Description: as §1

EL4-hCD98 tumors = assay: EL4-hCD98 syngeneic tumors in CD98 humanized mice; type: in vivo, mouse; conditions: 15 mg/kg
Description: as §1
F or depletion of CD4+ or CD8+ T cells, tumor-bearing CD98humanized mice were injected with 15 mg/kg of anti-CD4 antibody (clone GK1.5, BioXCell) or 10 mg/kg of anti-CD8α antibody (clone 2.43, BioXCell) one day before S1-F4 treatment and once every 3-5 days. For depletion of NK cells, mice were injected with 2.5 mg/kg anti-Asialo-GM1 polyclonal antibody (Poly21460, Biolegend) one day before S1-F4 treatment and once every six days. […]

MC38-hCD98 tumors = assay: MC38-hCD98 syngeneic tumors in CD98 humanized mice; type: in vivo, mouse; conditions: 20 mg/kg
Description: as §1

B16F10-hCD98 tumors = assay: B16F10-hCD98 syngeneic tumors in CD98 humanized mice; type: in vivo, mouse; conditions: 15 mg/kg
Description: as §1

[2] = Pharmacokinetics in CD98 humanized mice; type: in vivo, mouse; conditions: serum, single dose 15 mg/kg i.p.
Description: 6-8-week old C57BL/6 or CD98 humanized mice were used in this experiment. Blood was collected at different timepoints after a single intraperitoneal (i.p.) injection of analyte antibodies. Antibody concentrations in serum were measured with a human IgG ELISA quantitation kit (Bethyl Laboratories). Then antibody serum concentration was calculated and plotted in Graphpad Prism 6. The evaluation of the PK data was conducted with WinNonlin software.

[3] = Immunofluorescence staining of antibody enrichment in mouse kidneys; type: in vivo; conditions: CD98 humanized mice, 15 mg/kg, two days
From the text: For detecting enrichment of antibodies in mice kidneys, mice were sacrificed 2-3 days after injection with various antibodies. Then mice kidneys were harvested to prepare frozen sections. Kidney sections were stained with a goat polyclonal anti-Human IgG Fc FITC (Thermo Fisher Scientific). The CD98 expression on the surface of kidney cells was detected by FITC with a Vectra Polaris instrument (PerkinElmer).

B1: HN2-G9: anti-hCD98 antibody from non-immune phage display scFv library; VH SEQ ID NO:63, VL SEQ ID NO:68 (antibody, V domains shown)
VH: QVQLVQSGAEVKKPGSSVKVSCKASGYTFTSYYMHWVRQAPGQGLEWMGIINPSGGSTSYAQKFQGRVTMTRDTSTSTVYMELSSLRSEDTAVYFCARGYCSGGRCYSDFQHWGQGTLVTVSS
VL: DIVMTQSPDSLAVSLGERATINCKSSQSVLYSSNNKNYLAWYQQKPGQPPKLLIYWASTRESGVPDRFSGSGSGTDFTLTISSLQAEDVAVYYCQQYYNTPITFGQGTRLEIK
modifications: HN2-G9 VH amino acid seq; HN2-G9 VL amino acid seq
Raji tumors
  antitumor activity: comparable antitumor activity

B2: H15L54: pH-dependent anti-hCD98 antibody derived from S1-F4 VH Y97E sub-libraries; VH SEQ ID NO:23, VL SEQ ID NO:28 (antibody, V domains shown)
VH: QVQLVQSGAEVKKPGASVKVSCKASGYTFTSYQMHWVRQAPGQGLEWMGIINDKHGSTSYAQKFQGRVTMTRDTSTSTVYMELSSLRSEDTAVYYCARGYEDSNTHQHPIFFDIWGQGTMVTVSS
VL: DIVMTQSPDSLAVSLGERATINCKSSQSVLYRHNNKNYLAWYQQKPGQPPKLLIYWASTSESGVPDRFSGSGSGTDFTLTISSLQAEDVAVYYCQQYYNTPITFGQGTRLEIK
modifications: H15L54 VH amino acid seq; H15L54 VL amino acid seq
[1]; EC50 ratio pH 7.4/6.5
  binding pH-dependence relative to S1-F4 Y97E: about 14 times
[1]; pH 6.5
  binding activity at pH 6.5 relative to S1-F4 Y97E: about 7 times
A-431 cells
  binding to A-431 cells at pH 6.5 versus pH 7.4: significantly stronger at pH 6.5 than at pH 7.4
A-431 tumors
  antitumor activity: significant antitumor activity
EL4-hCD98 tumors
  antitumor activity: significant antitumor activity
MC38-hCD98 tumors
  antitumor activity: significant antitumor activity
B16F10-hCD98 tumors
  antitumor activity: significant antitumor activity
[2]
  half-life (t½): ~217.1 h
[3]
  antibody enrichment in kidneys (FITC signal): only a very weak FITC signal

B3: Ab8332: pH-dependent anti-hCD98 antibody; VH SEQ ID NO:33, VL SEQ ID NO:38 (antibody, V domains shown)
VH: QVQLVQSGAEVKKPGASVKVSCKASGYTFTSYQMHWVRQAPGQGLEWMGIINPSGGSTSYAQKFQGRVTMTRDTSTSTVYMELSSLRSEDTAVYYCARGYEDSNTHQHPIFFDIWGQGTMVTVSS
VL: DIVMTQSPDSLAVSLGERATINCKSSQSVLYSSNNKNYLAWYQQKPGQPPKLLIYWASTRESGVPDRFSGSGSGTDFTLTISSLQAEDVAVYYCQQYYNTPITFGQGTRLEIK
modifications: 8332 VH amino acid seq; 8332 VL amino acid seq
EL4-hCD98 tumors
  antitumor activity: comparable inhibitory effect of tumor growth as S1-F4

B4: H15L1: pH-dependent anti-hCD98 antibody; VH SEQ ID NO:43, VL SEQ ID NO:48 (antibody, V domains shown)
VH: QVQLVQSGAEVKKPGASVKVSCKASGYTFTSYQMHWVRQAPGQGLEWMGIINDKHGSTSYAQKFQGRVTMTRDTSTSTVYMELSSLRSEDTAVYYCARGYEDSNTHQHPIFFDIWGQGTMVTVSS
VL: DIVMTQSPDSLAVSLGERATINCKSSQSVLYRHNNKNYLAWYQQKPGQPPKLLIYWASTRESGVPDRFSGSGSGTDFTLTISSLQAEDVAVYYCQQYYNTPITFGQGTRLEIK
modifications: H15L1 VH amino acid seq; H15L1 VL amino acid seq
A-431 cells
  binding to A-431 cells at pH 6.5 versus pH 7.4: pH-dependent binding

B5: H15L35: pH-dependent anti-hCD98 antibody; VH SEQ ID NO:53, VL SEQ ID NO:58 (antibody, V domains shown)
VH: QVQLVQSGAEVKKPGASVKVSCKASGYTFTSYQMHWVRQAPGQGLEWMGIINDKHGSTSYAQKFQGRVTMTRDTSTSTVYMELSSLRSEDTAVYYCARGYEDSNTHQHPIFFDIWGQGTMVTVSS
VL: DIVMTQSPDSLAVSLGERATINCKSSQSVLYRHNNNNYLAWYQQKPGQPPKLLIYWASTSESGVPDRFSGSGSGTDFTLTISSLQAEDVAVYYCQQYYNTPITFGQGTRLEIK
modifications: H15L35 VH amino acid seq; H15L35 VL amino acid seq
A-431 cells
  binding to A-431 cells at pH 6.5 versus pH 7.4: pH-dependent binding
